Data from PubChem BioAssay AID485344 (National Center for Advancing Translational Sciences (NCATS), 2010).
Hit rate of the full screen: of about 340,000 compounds, about 6,900 (2%) were called active. No stated cut-off is given here; in the data, active means inhibition above about 30%; inactive means below that, where a call was filed. The list shows a part of the results, in another mix than the full data. Entries without a call were filed so in the source. Some compounds were tested as several samples or in several runs, with calls that do not always agree.

Molecular target: D(2) dopamine receptor (Homo sapiens) (UniProt P14416)
Chain of UniProt P14416 (P14416 whole entry, looked up): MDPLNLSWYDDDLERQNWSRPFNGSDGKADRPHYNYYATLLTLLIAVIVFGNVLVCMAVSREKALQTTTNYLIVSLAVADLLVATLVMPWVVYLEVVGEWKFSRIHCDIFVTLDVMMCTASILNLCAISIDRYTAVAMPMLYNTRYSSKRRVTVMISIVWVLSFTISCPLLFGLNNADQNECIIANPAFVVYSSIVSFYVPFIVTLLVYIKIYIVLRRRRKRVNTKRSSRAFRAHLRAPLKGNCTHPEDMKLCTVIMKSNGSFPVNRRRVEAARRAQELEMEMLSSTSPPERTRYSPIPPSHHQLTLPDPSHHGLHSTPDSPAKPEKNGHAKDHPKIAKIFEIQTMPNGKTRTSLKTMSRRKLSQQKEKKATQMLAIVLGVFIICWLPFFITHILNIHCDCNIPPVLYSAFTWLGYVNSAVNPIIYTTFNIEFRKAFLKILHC
Assay: HTS Assay for Allosteric Antagonists of the Human D2 Dopamine Receptor: Primary Screen for Antagonists; further: 0% is about no effect
Conditions: HEK293 TREx D2 cells, calcium flux, dopamine EC80; at 10 µM; stronger effect = higher value
Summary of the method: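 Overnight-induced (tetracycline, 30 C) HEK293 T-REx cells carrying force-coupled D2 receive a no-wash calcium dye, then compound, then EC80 dopamine at 180 s; signals are read kinetically throughout.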

SMILES	inhibition
CN(C)CC/C=C1\c2ccccc2Sc2ccc(Cl)cc21	active: 84.8%
CCN(Cc1ccccc1)C(=O)C1CCN(S(=O)(=O)c2ccc3c(c2)CCCN3C(C)=O)CC1	-8.3%
CCOC(=O)c1c(C)n(-c2ccc(OC)cc2)c2ccc(OC(=O)COc3ccccc3)cc12	7.7%
Cc1ccc(-n2ncc3c(Nc4cccc(Cl)c4)ncnc32)c(C)c1	3.91%
O=C(Cn1nnnc1-c1ccccc1F)Nc1ccc(OC(F)(F)F)cc1	-21.8%
O=C(Cc1ccc(Cl)cc1)Nc1ccc(Br)cc1	active: 43.9%
Fc1ccccc1-c1nc(N2CCN(c3cccc(Cl)c3)CC2)c2ccccc2n1	-0.238%
COCCNC(=O)Cn1ccc2cc(S(=O)(=O)N3CCCCCC3)ccc21	18.3%
CCn1c(=O)c2c(nc3n2CCN3c2ccc(OC)cc2)n(C)c1=O	-4.79%
Cc1cccc(N2CCN(CC(O)COc3ccc(Cl)cc3)CC2)c1 (stereo unspecified)	active: 58.3%
Cc1ccc(-c2noc(CCC(=O)N(C)c3ccccc3F)n2)cc1	7.13%
Nn1c(SCC(=O)NC(=O)NC2CCCC2)nnc1-c1ccccc1F	active: 88.5%
Cc1ccc(C2CC(=O)Nc3cc4c(cc32)OCCO4)cc1Br (stereo unspecified)	-6.2%
Cc1ccc2oc(=O)cc(CN3CCN(C/C=C/c4ccccc4)CC3)c2c1	active: 58.4%
Cc1c(O)c(=O)ccn1C	active: 31.4%
O=C(Nc1ccc(S(=O)(=O)N2CCC(c3nc4ccccc4s3)CC2)cc1)c1ccccc1	11.8%
COC(=O)c1nnn(CC(=O)NC(=O)Nc2ccc(F)cc2)c1C(=O)OC	3.9%
CC(=O)N1CCc2cc(Br)cc(S(=O)(=O)N3CCC(C(=O)Nc4cccc(C)c4C)CC3)c21	-8%
Cc1ccc(CNC(=O)Nc2cc(C(=O)NCc3cccc(F)c3)ccc2N2CCCC2)cc1	-4.46%
CC1CCCCN1Cc1c(O)ccc2c(=O)c(-c3ccccc3Cl)c(C(F)(F)F)oc12 (stereo unspecified)	-0.846%
CCCCn1c(CNC(=O)C23CC4CC(CC(C4)C2)C3)nnc1SCC(=O)Nc1ccc(C)cc1	-6.09%
Cc1ccc(CN(C(=O)COc2ccccc2Cl)c2ccccn2)o1	-14.4%
Cc1cccc(NC(=O)Cn2c(=O)n(Cc3ccc4c(c3)OCO4)c(=O)c3oc4ccccc4c32)c1C	12.9%
COc1ccc(Nc2c3c(nc4ccccc24)CCC3)cc1Cl	-19%

SMILES	inhibition
CCOc1ccc(NC(=O)Cn2c(=O)n(Cc3ccc4c(c3)OCO4)c(=O)c3ccc(C(=O)NC4CCCCC4)cc32)cc1	-10.1%
Cc1ccc(CNS(=O)(=O)c2ccc(C(=O)N(C)C)s2)cc1	9.99%
CCn1cc(S(=O)(=O)c2cc(C)cc(C)c2)c(=O)c2cc(F)c(N3CCCCC3)cc21	14.8%
CC(C)(C)C1CCc2c(sc(NC(=O)C3c4ccccc4Oc4ccccc43)c2C(N)=O)C1 (stereo unspecified)	5.82%
CCC(=O)N1c2ccc(S(=O)(=O)CCC(=O)NCc3ccccc3OC)cc2CC1C (stereo unspecified)	5.72%
CN(C(=O)CC(=O)Nc1ccc2nc3n(c(=O)c2c1)CCCCC3)c1ccccc1F	2.26%
COc1ccc(OC)c(S(=O)(=O)N2CCC(n3c(C)nc4cccnc43)CC2)c1	-5.11%
CCOC(=O)c1c(C)sc(-c2c(-c3ccccc3)[nH]c3[nH]c(=O)[nH]c(=O)c23)c1O	-6.27%
CN(Cc1ccccc1)C(=O)CSc1nnc(-c2cccc(Cl)c2)o1	-11.1%
CCc1ccc(CNC(=O)C2COc3ccc(OC)cc3C2)cc1 (stereo unspecified)	21.4%
COc1ccc(-c2noc(-c3ccc(N4CCOCC4)c([N+](=O)[O-])c3)n2)cc1	-15.6%
CCc1ccc(S(=O)(=O)NCc2ccc3c(c2)CCN3C(=O)c2ccc(C)cc2)cc1	17.2%
CC1=C(C(=O)Nc2ccccc2C)C(c2cccs2)n2nc(SCc3ccccc3)nc2N1 (stereo unspecified)	-10.2%
COc1ccc(NCc2cccn2-c2nnc(N3CCCCCC3)s2)cc1	-0.958%
Cc1ccc(S(=O)(=O)c2cn(Cc3ccccc3)c3cc(N4CCCCC4)c(F)cc3c2=O)cc1	5.62%
CC(C)CCOc1ccc(Cn2c(=O)oc3ccccc32)cc1	6.17%
COc1ccc(NC(=O)CSC2=Nc3ccccc3C3=NC(CC(=O)NCCc4ccccc4)C(=O)N23)cc1 (stereo unspecified)	11.5%
O=C(NCc1ccco1)c1ccc(Cn2c(SCc3ccccc3)nc3cccnc32)cc1	0.641%
CC(=O)c1ccc(NC(=O)C2CCN(c3nnc(C)c4c(C)n(-c5ccccc5)nc34)CC2)cc1	-1.05%
CC(C)(C)C1CCc2c(sc(NC(=O)c3cccc(Cl)c3)c2C(=O)NCc2ccco2)C1 (stereo unspecified)	19.5%
O=C1CC(c2ccc(Cl)cc2)CC(O)=C1C=NCCN1CCNCC1 (stereo unspecified)	active: 53.1%
CC(C)OCCCn1c(=O)c2ccccc2n2c(-c3ccccc3)nnc12	2.24%
Cc1ccc(-c2cc(C(=O)N3CCN(S(=O)(=O)c4ccc(Br)cc4)CC3)[nH]n2)c(C)c1	-7.06%
O=C(Cc1ccccc1)Nc1sc2c(c1C(=O)Nc1cccc(Cl)c1)CCCCC2	2.65%

SMILES	inhibition
CCc1nn2c(=O)cc(COC(=O)Cc3ccccc3)nc2s1	1.96%
CCc1ccc(S(=O)(=O)c2cn(Cc3ccccc3)c3cc(N4CCCC4)c(F)cc3c2=O)cc1	1.73%
Clc1ccc2c(c1)-n1cc(-c3ccccc3)nc1CO2	16.5%
COc1ccc(Cl)cc1S(=O)(=O)Nc1ccc2[nH]c(=O)[nH]c2c1	-15.1%
Cc1ccc(N2CC(NC(=O)c3ccccc3C(F)(F)F)CC2=O)cc1C (stereo unspecified)	-21.1%
Cc1ccc(Cl)cc1N1CCN(C(=O)CCS(=O)(=O)c2cc(Br)cc3c2N(C(=O)C2CC2)CC3)CC1	-5.06%
COc1ccc(NC(=O)CSc2oc(-c3cccs3)nc2S(=O)(=O)c2ccccc2)c(OC)c1	-15.7%
Cc1ccc(CCNC(=O)Cn2c(-c3cccs3)cc3ccccc32)cc1	7.52%
Cc1cccc(CNC(=O)c2cc3cc(S(=O)(=O)N4CCCCC4)ccc3n2C)c1	11%
O=C(Nc1ccc(C(=O)OCc2cc(=O)n3nc(C4CC4)sc3n2)cc1)c1ccccc1	-12%
COc1ccc(C(C)=O)cc1COC(=O)CSCC(=O)Nc1ccc(C)cc1	active: 30.5%
COc1ccc(-c2noc(CC(=O)N(C)c3cccc(C)c3)n2)cc1	-3.23%
CCOC(=O)COc1ccc(CC)cc1C(=O)c1ccn2nc(-c3ccc(F)cc3)cc2n1	4.5%
Cc1ccc(NC(=O)CN2C=NS(=O)(=O)c3ccccc32)cc1	13.2%
CCOC(=O)c1cnc2ccc(Br)cc2c1NCCN1CCOCC1	-11.3%
C#CCn1c(=NC(=O)c2ccc(S(=O)(=O)N3CCCc4ccccc43)cc2)sc2cc(S(N)(=O)=O)ccc21	active: 47.5%
O=C(Nc1ccc2c(c1)CCCN2C(=O)c1cccs1)c1ccc(F)c(F)c1	-11.9%
COc1ccc(C(=O)c2cn(Cc3ccccc3F)c3cc4c(cc3c2=O)OCCO4)cc1OC	-2.73%
COc1ccccc1/C=C/c1nc(C#N)c(NC2CCCCC2)o1	-10.9%
COc1ccc(CNC(=O)CCCn2nc(C)n3c(cc4sccc43)c2=O)cc1	8.43%
Cc1cc(F)c(F)c(C(=O)N2CCC(C)CC2)c1Cl	active: 31.8%
COCCn1c(C)cc(O)c(C(c2ccccc2OC)N2CCN(c3ccccc3)CC2)c1=O (stereo unspecified)	4.82%
COc1ccc(C(=O)NCCn2cc(SCc3ccc(C(F)(F)F)cc3)c3ccccc32)cc1OC	7.86%
COc1cccc(CNC(=O)C2CCCN(S(=O)(=O)N(C)c3ccc(F)cc3)C2)c1OC (stereo unspecified)	2.62%

SMILES	inhibition
Cc1cccc(NC(=O)CSC2=Nc3ccccc3C3=NC(CC(=O)NCc4cccs4)C(=O)N23)c1 (stereo unspecified)	7.68%
CCc1cccc(NS(=O)(=O)c2ccc3c(c2)CC(C)N3C(=O)C2CC2)c1 (stereo unspecified)	-5.04%
CCc1c(C)c2ccc(O)c(CN3CCN(c4ccc(F)cc4)CC3)c2oc1=O	4.61%
CCOCN(C(=O)Cn1c(COC)nc2ccccc21)c1c(C)cccc1CC	6.99%
COc1ccc(Cl)cc1NC(=O)CSc1nccn1-c1ccc(Cl)cc1	23.7%
COc1ccc(S(=O)(=O)CCc2nc3ccccc3s2)cc1	active: 59.1%
COc1ccc(S(=O)(=O)N2Cc3ccccc3CC2C(=O)Nc2cc(Cl)ccc2Cl)cc1 (stereo unspecified)	14.2%
O=C(NC1=NCCS1)c1cccc(S(=O)(=O)N2CCOCC2)c1	active: 34.5%
Cc1ccc(C)c(NC(=O)C2CCN(S(=O)(=O)c3c(C)noc3/C=C/c3cccs3)CC2)c1	17.6%
Cc1sc2c(c1C)c(=O)n(CCc1ccccc1)c(=O)n2Cc1ccc(C(C)(C)C)cc1	1.96%
COc1ccc(NC(=O)C2CSC3c4ccccc4C(=O)N23)cc1 (stereo unspecified)	active: 31.6%
CCn1c(CNC(=O)c2ccc(OC)cc2)nnc1SCC(=O)Nc1cc(C)ccc1C	-15.6%
Cn1c(/C(C#N)=C/c2ccccc2Br)nc2ccccc21	10.2%
COc1ccc(N2CCN(S(=O)(=O)c3ccc4c(c3)C(C(C)C)C(=O)N4)CC2)cc1 (stereo unspecified)	-2.12%
Cc1nc2cc(-c3cccc(F)c3)nn2c(C)c1CCC(=O)NCCc1ccccc1	-1.11%
CCOC(=O)COc1ccc(-c2nnn(CC(=O)Nc3ccccc3)n2)cc1	4.76%
Cn1c(=O)c2sccc2n2c(CCCC(=O)Nc3ccc(Oc4ccccc4)cc3)nnc12	4.81%
Cc1ccc(C)c(N2CCN(C(=O)c3cc(C)nc4c3c(C)nn4-c3ccccc3)CC2)c1	11.6%
CCOc1ccc(OCC(=O)Nc2ccc(S(=O)(=O)Nc3cc(C)on3)cc2)cc1	-1.93%
COc1cc(CN(C(=O)COc2ccc(F)cc2)c2ccccn2)cc(OC)c1OC	16.5%
COc1cc(NC(=O)CCN2CCN(CCO)CC2)cc(OC)c1	9.27%
CCc1nn(CC(=O)NCCc2ccc(SC)cc2)c(=O)c2cc3sccc3n12	-6.31%
CCOc1cc(-c2nc(-c3ccc(-c4ccccc4)nc3OCC)no2)cc(OCC)c1OCC	-20.4%
COc1cc(OC)c(NC(=O)c2cnn(-c3ccccc3)c2-n2cccc2)cc1Cl	4.99%
